The supplement of paper PMC10126150
Sequences with one replicate were seen in a single cluster, so their values are uncertain.

Test system: ATP
Test: switch fluorescence ratio, 500 uM ATP over buffer (Cy3 cluster intensity, sum of 5 cycles each) (fold (ratio)); higher = stronger signal-on switching upon ATP binding; sequences stand for … in TCGTCGGCAGCGTCAGATGTGTATAAGAGACAGTTTTTTTTTTTTTTTTTTTTTTTTT…TC
Conditions: aptamer strand: ATP DNA aptamer (quencher-CACCTGGGGGAGTATTGCGGAGGAAGG + anchor), 100 nM annealed; ATP concentration: 500 uM; one replicate
Procedure, shortened: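 Cy3-labelled switching-strand clusters on a modified Illumina MiSeq flow-cell were annealed to 100 nM quencher-labelled ATP aptamer, imaged in selection buffer, then imaged after 15 min with 500 uM ATP at 22 °C. Five buffer/ATP cycles ran, with NaOH stripping and re-annealing between them. The fluorescence ratio is summed target-cycle over summed buffer-cycle Cy3 intensity per cluster, averaged per switch-domain sequence. Clusters outside 100-1000 RFU were excluded.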
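Also: ATP exposure 15 min at 22 °C before imaging.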

Sequence | switch fluorescence ratio
CTTCTAAATA | 1.09
GCAAACATGG | 1.03
TTTTATAACT | 1.03
GGTCGCCCCC | 1
TCTTGCTGGT | 0.978
ATACTGGTCC | 1.04
ATTACCTGTG | 1.02
GCATGTGGAG | 0.999
ACCCAGGTTG | 5.61
TAGATGTCA | 1.06
AGGGCCGCAT | 1.09
CCGATGGCAG | 4.39
CTGCGCCGAT | 1.06
TAGGCGACGG | 1
CGTTGGGTAA | 0.965
AAGTTATCTC | 1.03
AATGAGATG | 0.999
GCCGATCGGA | 1.02
GGACAGAGGC | 1.03
GGGTATTCGA | 0.978
TTGGA | 0.984
ACGACAGGTA | 1.02
ATCTACGTCC | 1.11
TCGTATCTTT | 0.961
AGATGCGTGA | 0.945
CTGGCTCCTT | 1.01

Sequence | switch fluorescence ratio
ATAATTAGGT | 1.03
TCATAGGCAT | 1.01
TTATCTATA | 0.997
CCAGATGGAT | 1.04
GGTCGAGGAA | 0.964
TCACAAGGTA | 1.04
GCGGTCATGA | 0.986
GGTTTCTTTC | 1.02
GAGCAGTCG | 1.03
AGCATAAGAT | 0.967
AACCACCAAA | 1.08
TTTTATTCG | 1.05
AAAGGGCACC | 1.02
TTTCGACCGG | 1.01
TGGGTAGCCC | 1.07
GAGAAGGTGT | 1.14
TTTTCGTGCC | 0.963
CCTCAATCGG | 1.36
CGCCACTTAA | 1
GAGCACAGAA | 1.05
ATACCTGTGC | 1.22
AAACGCTGGG | 0.987
GGGAACGCGA | 1.09
GAGACCGCC | 1.33
CAGATAACAG | 1.01
GCATCGATAA | 0.991

Sequence | switch fluorescence ratio
TCTATTAGCG | 0.941
TGATCATGCT | 0.944
ACCTAGAAAC | 1.11
CGTTGACTTA | 1.02
TTAGGGATTA | 1.02
GCGATTTCTG | 1.03
GATATTACTT | 0.977
TATTCTATGG | 0.978
GTTGGAGACC | 1.02
AAGAGTTAAT | 0.986
AAAGAAAAGT | 0.962
TTTGCAAAAT | 1.2
ATTTCGGGCT | 1.02
TGAGGCTTTG | 0.984
AGGGTCTGCA | 1.02
TAGGGGACCC | 1
TACGCCCGGT | 1.01
CCCGCTGAGT | 1.23
GTTATATCTG | 1.03
AAATTTGATC | 1
GCCAACTTAG | 1.02
ACACCCATCG | 1.17
CACAATTATT | 1.02
TGAAATATAT | 1.01
TACCACGAAA | 1.12
TCAAAAAACA | 1.01

Sequence | switch fluorescence ratio
TGTCGCTAGC | 1.04
TGTTTATGTG | 1.05
GCACACAGGG | 1.16
TGATTCTAGG | 1.01
ATGTCGTGTT | 0.995
ACGGCTGCTC | 1.09
GATGTCCTGA | 0.97
TACAGATGAG | 0.985
ATAGTATTAC | 1.08
CAGTATTTAA | 1.02
CAGGTGGCGC | 1.07
CCACCCGTCC | 1.46
CACCAGTTGA | 1.12
TCACTTACTT | 1.16
GCGTTGGTCT | 1.02
ATTGACCTC | 1.05
ATCGGGTTAT | 0.982
ATACGATGTG | 1.02
CCTCGTGCTT | 2.09
GGGAAGGGCC | 1.05
CTCTTCGCGT | 1.08
CGGTAATATT | 1.1
CGGGGAAGG | 1.05
CCTACCCTAC | 4.5
TGTGGTTAAC | 0.993
GTGGACAGTT | 0.96

Sequence | switch fluorescence ratio
GCGTGGGCGG | 0.983
TCTTGTGTTA | 0.978
GTTGGTCGCA | 1.05
AGTTACGGCG | 1.03
ATCGTTTGG | 0.98
AATGGTGGGA | 0.97
CAACGGAGTG | 0.988
GATTCACAGC | 1.04
GTAGTATGAC | 1.02
CCATCAGTGG | 1
GATATGGGTC | 1.02
CGTCGCTAAA | 1.14
CGAAATTCGG | 1
GTGCCATTCT | 1.05
AGCATTTTG | 1.02
TAACCAGAGT | 1
ACCATATTAC | 1.19
CTTGCGATTG | 1.04
AGTAAGTGTC | 1.21
GCGCACGTGA | 1.01
AGAGACAGTT | 0.975
AAACTCAGGA | 0.993
AAAAAGACGC | 1
GCCTGAGA | 0.978
GCCAGATTCT | 0.983
CTCTTTGTTT | 1.03

Sequence | switch fluorescence ratio
ATATACACTC | 1.05
TTCGGCAGAT | 0.989
CTCCGATGAA | 2.16
GGTGAATACC | 0.949
ACTCGTGCGT | 0.966
CGCGTGGGTC | 1.1
GAAATTACTC | 1.06
AGGAGAGCGT | 1
CACTCTACTC | 1.36
GCGCCTTATT | 0.986
ATAGCATGAT | 1.03
TGTCGAAACC | 1.12
AAGCTGAACA | 1
ATACTATGCT | 0.994
TTGCTCTAGG | 1.03
TTTAGGGTCC | 0.953
TGCGTAGTG | 0.973
AATTGGTTAT | 1
TGGGACGTGT | 0.942
CGTGCTGTCC | 0.929
CGGCAGGGAG | 1.06
CAATTAGCCT | 1.03
AGGATGACTC | 0.995
CTGCGGAATT | 1.13
ACGCGCTAAG | 1
CTTCACCAGA | 1.08

Sequence | switch fluorescence ratio
AACTCAAGCG | 1.01
CATGGGTTCA | 1.02
ACCAGCCGCG | 1.08
GCTGTGCGGC | 1
CCCTACTTGG | 1.01
GGGTCGCCT | 1
AGTAATCTTT | 0.968
CCTAGTTCTC | 1.05
ACAAGCAAA | 1.47
ACTCGACTGC | 1.12
GAATCAAGTG | 0.933
AATTACTATA | 1.14
CATTATTCGT | 0.978
TTAACCGGGC | 1.65
AACGGTATGA | 1.08
TCCAACTGTA | 1.08
ACCGGGAGTG | 0.983
AGGCACGCTA | 1.1
ACTCTATTA | 1.08
GGTTTTGCTC | 0.989
AACTTTGTGG | 0.972
TAACGGCCTT | 1.06
AACGTGTCTA | 1.01
GGAGCTACCT | 1.2
CACCTTTTAC | 1.16
GCATCACTGT | 0.957

Sequence | switch fluorescence ratio
AATGGACGGG | 0.996
CTAACAACGA | 1.02
CCCAGGGCCG | 1.08
TTGTAATATA | 1.04
GGAGTAGGGT | 0.996
GCTAAGTTAC | 1.27
TCATGACGAT | 1.02
TGGTGTATCT | 0.999
ATCTCTACCC | 1.01
CCGTTTCGGG | 0.986
TGTCCGGGAA | 1.06
AGCTTCGAAT | 0.992
ATTTGTTCCC | 0.985
GAGTCTCGAG | 0.985
ATGCTAATCT | 1.01
CATATAGAAC | 1.07
GTATAACCGG | 0.957
GGCATACAAG | 0.972
CTACCGTAGC | 3.44
